In PubChem BioAssay AID463173 (ICCB-Longwood Screening Facility, Harvard Medical School, 2010):
Screen size: about 52,000 compounds; about 4,300 (8.3%) were called active. Rule as the data show it: active = survival mostly below about 52% (no sharp cut-off); inactive = mostly above about 56%. Some of the results follow.

tested on: DeltatarO mutant; test: growth inhibition of S. aureus wild type versus tarO mutant, primary screen, teichoic acid synthesis inhibitors, RN4220, OD600 (AID 463173); details: OD600, 18 h, stronger effect = lower value, screened at 18.75 µg/mL (by protocol)

Structure (SMILES) | survival
CCOC(=O)c1cc(-c2ccccc2)n(CCC(=O)Nc2nc3c(C)cccc3s2)c1C | inactive: 79%
COc1cccc(NC(=O)c2nnn(Cc3ccc(OC)c(Br)c3)c2N)c1 | inactive: 57%
CCc1nn2c(=O)cc(COC(=O)C3CCCCC3)nc2s1 | inactive: 84%
CCn1cc(C(=O)NCc2ccccc2OC)c(=O)c2cc(S(=O)(=O)N3CCCCCC3)ccc21 | inactive: 60%
CCOC(=O)c1cc(-c2ccccc2)n(CCCC(=O)Nc2ccc(C)cc2Cl)c1C | inactive: 74%
Cc1cc(C)n(-c2nc(C)c(C)c(=O)n2CC(=O)Nc2ccc(Cl)c(Cl)c2)n1 | inactive: 82%
COc1ccc(NC(=O)CCNS(=O)(=O)c2ccc3c(c2)CCN3C(=O)C2CC2)cc1Cl | inactive: 67%
COc1ccc(-c2nnc(SCC(=O)Nc3cccc(Cl)c3C)nc2-c2ccc(OC)cc2)cc1 | inactive: 89%
COc1ccc(-c2cc(OC(=O)c3cccc(C)c3)c3c(C)oc(C)c3c(=O)c2)cc1 | inactive: 122%
Cc1cc(C)c(NC(=O)Cn2nnc(C(=O)Nc3ccc(F)cc3F)c2N)c(C)c1 | inactive: 81%
CC(=O)Nc1ccc(NC(=O)c2c(C)nn(-c3ccccc3)c2-n2cccc2)cc1 | inactive: 84%
Cc1ccc(CNC(=O)c2ccc3c(c2)nc2n3CCCC2)cc1 | inactive: 86%
CCc1ccc(NC(=O)c2c(C(=O)Nc3ccccc3)sc3nc(C)cc(=O)n23)cc1 | inactive: 96%
CN1C(=O)Cc2cc(S(=O)(=O)CCC(=O)N3CCN(c4cccc(Cl)c4)CC3)ccc21 | inactive: 62%
Cc1ccsc1CCN1C(=O)N(c2ccc(F)cc2)C(=O)C1CC(=O)Nc1ccccc1 (centres undefined) | inactive: 60%
COc1cc(-c2noc(C3CC(=O)N(c4cc(C)ccc4C)C3)n2)cc(OC)c1OC (centres undefined) | inactive: 69%
COc1cccc(NS(=O)(=O)c2cc3c4c(c2)C(C)C(=O)N4CCC3)c1 (centres undefined) | inactive: 98%
CCOc1ccc2nc3c(cc2c1)CN(CCO)C(=Nc1cccc(OC)c1)S3 | active: 47%
COc1ccc(-n2nnnc2SCC(=O)c2ccc3c(c2)OCCO3)c(OC)c1 | inactive: 76%
COc1cccc(-c2cc(C(=O)N3CCN(c4ccc(F)cc4)CC3)no2)c1 | active: 44%
CCOc1ccc(NC(=O)Cn2cnc3c(oc4ccccc43)c2=O)cc1 | inactive: 80%
CCc1ccc(NC(=O)C2CCCN(S(=O)(=O)c3cccc4nonc34)C2)cc1 (centres undefined) | inactive: 83%

Structure (SMILES) | survival
COC(=O)c1c(O)c2c([nH]c1=O)CCCC2 | inactive: 68%
Cc1cc(C)c(NS(=O)(=O)c2cc(-c3cnc(C4CC4)o3)ccc2C)c(C)c1 | inactive: 125%
COc1ccc(CNC(=O)C2CCN(S(=O)(=O)c3ccc4nc5c(c(C(=O)O)c4c3)CC(C)CC5)CC2)cc1 (centres undefined) | inactive: 62%
CCN1C(=O)c2ccccc2Sc2ccc(NC(=O)Cc3ccc(OC)cc3)cc21 | inactive: 62%
CCCn1cc(S(=O)(=O)c2cc(C)ccc2C)c(=O)c2cc(F)c(N3CCCCCC3)cc21 | inactive: 62%
COc1ccc(-c2cc(-c3ccccc3)nc3c2COc2ccccc2-3)cc1 | inactive: 71%
CC(C)CC(=O)Nc1nnc2n1CCS2 | inactive: 99%
CCOc1ccc(NCc2cccn2-c2nnc(N3CCC(C(=O)NCc4cccc(OC)c4)CC3)s2)cc1 | inactive: 80%
COc1ccc(-n2nnc(C(=O)Nc3ccccc3F)c2N)cc1 | inactive: 68%
CCc1ccccc1N(c1nc(-c2ccc(OC)c(OC)c2)no1)c1nc(-c2ccc(OC)c(OC)c2)no1 | inactive: 46%
COc1cccc(NC(=O)C(=O)NCCc2csc3nc(-c4ccccc4C)nn23)c1 | inactive: 72%
CC(C)(C)OC(=O)N1CCC(c2c(C(=O)NCc3ccccn3)cnn2-c2ccc(F)cc2)CC1 | inactive: 134%
COc1ccc2c(c1)c1c(c(=O)n(-c3cccc(C)c3)c(=O)n1CC(=O)N1CCCC1)n2C | inactive: 84%
Cc1cc(C)c2c(=O)cc(C(=O)Nc3ccc(S(=O)(=O)Nc4onc(C)c4C)cc3)oc2c1 | inactive: 49%
CCC(C)NC(=O)c1ccc2c(c1)N=C(C)c1cc(C)ccc1S2 (centres undefined) | inactive: 116%
CCc1cccc(C)c1NC(=O)Cn1c(=O)n(-c2cccc(C)c2)c(=O)c2c1c1cc(C)ccc1n2C | inactive: 85%
COc1ccccc1N1CCN(C(=O)Cn2cnc3sc(C)c(S(=O)(=O)N4CCC(C)CC4)c3c2=O)CC1 | inactive: 84%
Cc1cccc(Cc2c(C)nc3nc(SCC(=O)NCc4ccc(F)cc4)nn3c2C)c1 | inactive: 56%
CC(=O)NCc1nc2cccnc2n1Cc1ccccc1 | inactive: 85%
CC(=O)c1cc(-c2ccccc2)n(CCC(=O)NCCc2ccccc2)c1C | inactive: 112%
Cc1ccc(Cc2nc3ccccc3nc2SCC(=O)NCCc2ccccc2)cc1 | inactive: 67%
Cc1nc2c(-c3ccc(F)cc3)c(C)nn2c(C)c1CCC(=O)N1CCN(c2ccc(F)cc2)CC1 | inactive: 64%
